The antibiotic and cytotoxicity screens of Wong et al. (2023)
This is one part of the list.

How the values were obtained:
HSkMC = human skeletal muscle cells; assay: cytotoxicity call (relative viability < 0.9); details: 10 µM
HepG2 = assay: cytotoxicity call (relative viability < 0.9); details: 10 µM
S. aureus RN4220 = assay: growth inhibition call (relative growth <= 0.2); details: 50 µM

With `COC(=O)C[C@@H]1CC[C@@H]2[C@@H](COc3ccc(NS(=O)(=O)c4ccccc4Cl)cc3C(=O)N2C)O1` the cytotoxicity call (HSkMC) was “inactive”, the cytotoxicity call (HepG2) was “inactive” and the growth inhibition call (S. aureus RN4220) was “inactive”.

In the case of `CN(C)Cc1cn(CC[C@@H]2CC[C@H](N)[C@@H](CO)O2)nn1`, the cytotoxicity call (HSkMC) is reported as “inactive”, the cytotoxicity call (HepG2) is reported as “inactive” and the growth inhibition call (S. aureus RN4220) is reported as “inactive”.

With `C[C@H]1CN([C@@H](C)CO)C(=O)Cc2cc(NC(=O)Nc3ccc(Cl)c(Cl)c3)ccc2O[C@H]1CN(C)S(=O)(=O)c1ccc(Cl)cc1` the cytotoxicity call (HSkMC) was “active”, the cytotoxicity call (HepG2) was “active” and the growth inhibition call (S. aureus RN4220) was “inactive”.

`C[C@@H]1CN([C@@H](C)CO)C(=O)c2cccc(NC(=O)Nc3cccc4ccccc34)c2O[C@H]1CN(C)C(=O)Nc1ccc(C(F)(F)F)cc1` was tested, and the cytotoxicity call (HSkMC) was “active”, the cytotoxicity call (HepG2) was “active” and the growth inhibition call (S. aureus RN4220) was “inactive”.

In the case of `C=CCOC(=O)[C@H]1[C@@H]2C(=O)O[C@@H](c3ccccc3)[C@@H](c3ccccc3)N2[C@@H](c2ccc(OCCOC(=O)[C@@H]3C[C@@H]4C(=O)N[C@@H](CCCC[N+](C)(C)C)C(=O)N4[C@@H]3c3ccc(O)cc3)cc2)[C@]12C(=O)Nc1ccccc12`, the cytotoxicity call (HSkMC) is reported as “inactive”, the cytotoxicity call (HepG2) is reported as “inactive” and the growth inhibition call (S. aureus RN4220) is reported as “inactive”.

For `C[C@@H](O)C#Cc1ccc2c(c1)O[C@H](CN(C)C(=O)CN(C)C)[C@@H](C)CN([C@@H](C)CO)S2(=O)=O`, the cytotoxicity call (HSkMC) was “inactive”, the cytotoxicity call (HepG2) was “inactive” and the growth inhibition call (S. aureus RN4220) was “inactive”.
